Data published in PMC9481464.
No constants are given. Whether binding was seen depends on the method and setting. Some results given as binding are weak or reduced against the parent protein; the word gives no strength. Where a sequence is shown, tags or fusion partners need not be part of it.

Protein sequences, listed by entry. Tags and fused reporters are not part of them. Lines headed by an entry give the natural chain unless they say otherwise; changes in a name come on top.
UniProt O75140: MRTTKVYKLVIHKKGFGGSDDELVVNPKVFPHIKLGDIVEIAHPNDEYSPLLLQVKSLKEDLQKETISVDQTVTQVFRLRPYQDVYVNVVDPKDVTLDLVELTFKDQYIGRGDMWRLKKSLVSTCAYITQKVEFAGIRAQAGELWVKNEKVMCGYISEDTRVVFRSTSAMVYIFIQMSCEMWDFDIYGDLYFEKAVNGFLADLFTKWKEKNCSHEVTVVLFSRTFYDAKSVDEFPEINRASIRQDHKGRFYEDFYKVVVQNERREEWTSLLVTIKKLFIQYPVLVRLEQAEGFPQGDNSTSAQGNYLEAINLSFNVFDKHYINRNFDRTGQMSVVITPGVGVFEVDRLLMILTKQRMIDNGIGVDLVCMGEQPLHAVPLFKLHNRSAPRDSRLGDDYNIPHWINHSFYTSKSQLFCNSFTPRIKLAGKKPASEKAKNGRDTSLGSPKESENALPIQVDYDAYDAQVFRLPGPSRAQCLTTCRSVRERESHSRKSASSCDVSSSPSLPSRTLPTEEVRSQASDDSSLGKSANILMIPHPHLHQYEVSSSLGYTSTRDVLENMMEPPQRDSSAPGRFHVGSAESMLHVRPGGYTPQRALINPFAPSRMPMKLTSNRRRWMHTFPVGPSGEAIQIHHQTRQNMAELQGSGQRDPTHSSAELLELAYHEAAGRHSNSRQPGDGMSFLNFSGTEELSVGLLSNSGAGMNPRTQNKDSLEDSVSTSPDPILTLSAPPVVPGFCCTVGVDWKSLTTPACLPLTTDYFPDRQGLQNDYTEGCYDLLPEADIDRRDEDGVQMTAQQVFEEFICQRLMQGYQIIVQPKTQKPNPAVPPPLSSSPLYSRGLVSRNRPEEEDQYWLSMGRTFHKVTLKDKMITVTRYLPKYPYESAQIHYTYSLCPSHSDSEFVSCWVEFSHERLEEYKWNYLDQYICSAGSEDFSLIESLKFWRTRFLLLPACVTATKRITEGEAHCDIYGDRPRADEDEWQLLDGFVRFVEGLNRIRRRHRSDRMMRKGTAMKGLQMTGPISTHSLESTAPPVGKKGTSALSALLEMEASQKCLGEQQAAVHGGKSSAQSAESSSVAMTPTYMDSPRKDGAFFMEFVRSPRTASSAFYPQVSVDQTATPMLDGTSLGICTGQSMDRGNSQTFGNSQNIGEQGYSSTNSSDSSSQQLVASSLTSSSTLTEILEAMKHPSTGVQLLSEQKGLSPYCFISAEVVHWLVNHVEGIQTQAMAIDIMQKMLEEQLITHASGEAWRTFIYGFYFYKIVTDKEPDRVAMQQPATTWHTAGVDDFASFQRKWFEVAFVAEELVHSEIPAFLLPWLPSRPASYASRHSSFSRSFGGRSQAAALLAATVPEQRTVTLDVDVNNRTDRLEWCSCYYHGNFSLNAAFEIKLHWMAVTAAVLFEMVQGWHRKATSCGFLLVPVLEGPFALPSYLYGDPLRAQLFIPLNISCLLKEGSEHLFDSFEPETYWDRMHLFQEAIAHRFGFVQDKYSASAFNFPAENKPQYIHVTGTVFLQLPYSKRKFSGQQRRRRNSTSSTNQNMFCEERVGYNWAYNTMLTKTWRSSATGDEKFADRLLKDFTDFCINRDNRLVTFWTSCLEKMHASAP

Columns and labels:
FLAG–DEPDC5 (wild type) = FLAG–DEPDC5 (wild type) (UniProt O75140); assay: co-purification; FLAG–DEPDC5 (wild type or Y775A), HA-Nprl2 and HA-Nprl3 co-transfected 1:2:2 in HEK293T; anti-FLAG beads, FLAG peptide elution in CHAPS buffer; Coomassie staining
FLAG–DEPDC5 Y775A = FLAG–DEPDC5 Y775A (UniProt O75140); assay: as above

B1: HA-tagged Nprl2/3 (complex, UniProt Q8WTW4 1-380; Q12980 1-569)
chain 1: MGSGCRIECIFFSEFHPTLGPKITYQVPEDFISRELFDTVQVYIITKPELQNKLITVTAMEKKLIGCPVCIEHKKYSRNALLFNLGFVCDAQAKTCALEPIVKKLAGYLTTLELESSFVSMEESKQKLVPIMTILLEELNASGRCTLPIDESNTIHLKVIEQRPDPPVAQEYDVPVFTKDKEDFFNSQWDLTTQQILPYIDGFRHIQKISAEADVELNLVRIAIQNLLYYGVVTLVSILQYSNVYCPTPKVQDLVDDKSLQEACLSYVTKQGHKRASLRDVFQLYCSLSPGTTVRDLIGRHPQQLQHVDERKLIQFGLMKNLIRRLQKYPVRVTREEQSHPARLYTGCHSYDEICCKTGMSYHELDERLENDPNIIICWK
chain 2: MRDNTSPISVILVSSGSRGNKLLFRYPFQRSQEHPASQTSKPRSRYAASNTGDHADEQDGDSRFSDVILATILATKSEMCGQKFELKIDNVRFVGHPTLLQHALGQISKTDPSPKREAPTMILFNVVFALRANADPSVINCLHNLSRRIATVLQHEERRCQYLTREAKLILALQDEVSAMADGNEGPQSPFHHILPKCKLARDLKEAYDSLCTSGVVRLHINSWLEVSFCLPHKIHYAASSLIPPEAIERSLKAIRPYHALLLLSDEKSLLGELPIDCSPALVRVIKTTSAVKNLQQLAQDADLALLQVFQLAAHLVYWGKAIIIYPLCENNVYMLSPNASVCLYSPLAEQFSHQFPSHDLPSVLAKFSLPVSLSEFRNPLAPAVQETQLIQMVVWMLQRRLLIQLHTYVCLMASPSEEEPRPREDDVPFTARVGGRSLSTPNALSFGSPTSSDDMTLTSPSMDNSSAELLPSGDSPLNQRMTENLLASLSEHERAAILSVPAAQNPEDLRMFARLLHYFRGRHHLEEIMYNENTRRSQLLMLFDKFRSVLVVTTHEDPVIAVFQALLP
In the case of B1, the binding (FLAG–DEPDC5 (wild type)) is reported as “binds” and the binding (FLAG–DEPDC5 Y775A) is reported as “binds”.
